Data from ChEMBL document CHEMBL5308541, “MAIP: An Open-Source Tool to Enrich High-Throughput Screening Output and Identify Novel, Druglike Molecules with Antimalarial Activity” (ACS Med Chem Lett, 2023).
About 540 (0.36%) of roughly 150,000 compounds showed an effect of 50% or more. Some of the results follow.

The compounds below were run on Plasmodium falciparum (assay: Primary screen in NF54 nanoGlo assay, in single point, at 2uM, 72h; a lower Z score goes with more inhibition). Conditions: timepoint 72 hour.
Format: functional, Erythrocyte
With `CC(C1CCCN(C(=O)OC(C)(C)C)C1)N1CCN(CC(=O)N2CCCCCC2)CC1` (stereo not drawn) the “% Inhibition” value was 2% and the Z score was -0.42.
`Cc1cc(OCC(N)=O)ccc1N[C@H]1CCN(c2ccccc2)C1=O` was tested, and the “% Inhibition” value was -2% and the Z score was 0.44.
For `CN[C@H]1CCN(c2cc(NC3(C)CC3)nc(N)n2)C1`, the “% Inhibition” value was 7% and the Z score was -1.06.
With `Cc1ccccc1COc1cccc2[nH]c(C(=O)N3CCC(N4CCCCC4)CC3)cc12` the “% Inhibition” value was 0% and the Z score was 0.01.
With `c1ccc2c3c([nH]c2c1)CN(c1ncnc2[nH]ccc12)CC3` the “% Inhibition” value was -5% and the Z score was 0.97.
In the case of `c1cc2cc(CN3CCCC[C@@H]3CN3CCOCC3)ccc2[nH]1`, the “% Inhibition” value is reported as 3% and the Z score is reported as -0.62.
For `CCN(CC1CCN(C2CCN(C)CC2)CC1)C(=O)[C@@H]1CCCCN1CC`, the “% Inhibition” value was 5% and the Z score was -0.83.
With `CN(C)C(=O)c1ccc(CNc2nc3ccccc3n2CCCc2ccccc2)[nH]1` the “% Inhibition” value was -9% and the Z score was 1.47.
For `Cc1ccc(C(=O)Nc2cnn(-c3ccc(C(=O)N4CC[C@H](c5ccc(F)cc5)C4)cc3)c2)c(C)c1`, the “% Inhibition” value was -8% and the Z score was 1.56.
For `Clc1ccc2nc(CN(Cc3cccnc3)CC3CCN(C4CCCC4)CC3)ccc2c1`, the “% Inhibition” value was -7% and the Z score was 1.18.
For `Cn1cc(CN[C@H]2CCN(c3ccccn3)C2)c(-c2ccncc2)n1`, the “% Inhibition” value was 4% and the Z score was -0.68.
`CN1CCC(N(Cc2ccccc2)C(=O)c2cc3cnccc3[nH]2)CC1` was tested, and the “% Inhibition” value was 52% and the Z score was -7.83.
`c1cnc2[nH]cc(C3CCN(c4ncnc5nc[nH]c45)CC3)c2c1` was tested, and the “% Inhibition” value was -1% and the Z score was 0.14.
For `CC(C(=O)NCc1ccc(CN2CCOCC2)cc1)N1CCC(CNc2ccccn2)C1` (stereo not drawn), the “% Inhibition” value was 5% and the Z score was -0.72.
With `CC1(C)CC(NCc2cccc3cn[nH]c23)CC(C)(C)N1` the “% Inhibition” value was 3% and the Z score was -0.7.
With `CC(C)C(NC1CCOCC1)C(=O)NC1CCN(C2CCCC2)C1` (stereo not drawn) the “% Inhibition” value was 0% and the Z score was -0.07.
With `CCC(C)C(NC(=O)c1csc(-c2ccsc2)n1)C(=O)NCCN1CCOCC1` (stereo not drawn) the “% Inhibition” value was -4% and the Z score was 0.82.
With `O[C@@H]1C[C@H]2CN(c3cccc(-n4cnc5ccccc54)n3)CCN2C1` the “% Inhibition” value was -6% and the Z score was 0.99.
In the case of `CC(C)CC(C)OC(=O)N1CC2(CC(O)CNC2=O)C1` (stereo not drawn), the “% Inhibition” value is reported as 5% and the Z score is reported as -1.
In the case of `O=C(N[C@H]1C[C@H](CO)C1)c1cc(-c2c[nH]c3ccccc23)[nH]n1`, the “% Inhibition” value is reported as -2% and the Z score is reported as 0.48.
For `Cc1cc(F)ccc1N1CCC(NC[C@H](O)c2cccc(O)c2)CC1`, the “% Inhibition” value was -6% and the Z score was 1.1.
For `COC(=O)N1CCC2(CCC(N3CCN(c4ccncc4)CC3)CC2)CC1`, the “% Inhibition” value was 8% and the Z score was -1.76.
For `CN1CCC2CCC(C1)N2C(=O)c1cccc(-c2cc(NCCO)ncn2)c1` (stereo not drawn), the “% Inhibition” value was 0% and the Z score was 0.07.
`N#Cc1ncccc1S(=O)(=O)N1CCN(Cc2ccccc2)C2(CCCCC2)C1` was tested, and the “% Inhibition” value was -15% and the Z score was 2.56.
In the case of `Nc1cccc(-c2ccc3nncn3n2)c1`, the “% Inhibition” value is reported as -5% and the Z score is reported as 0.7.
`CCn1nccc1C=Cc1nc2ccc(C(=O)O)cc2o1` was tested, and the “% Inhibition” value was -4% and the Z score was 0.8.
In the case of `CCc1nn(C)c2[nH]nc(NC(=O)c3[nH]nc4c3CCCC4)c12`, the “% Inhibition” value is reported as -6% and the Z score is reported as 1.22.
For `c1cn(CCCN2CCCN(C3CCCC3)CC2)cn1`, the “% Inhibition” value was -6% and the Z score was 1.04.
For `CN1CCC(CNc2ncnc3c2CCNCC3)(c2ccccc2)CC1`, the “% Inhibition” value was 2% and the Z score was -0.36.
With `COc1ccc(C(O)CNC2CCc3ccc(F)cc32)cc1` (stereo not drawn) the “% Inhibition” value was 0% and the Z score was 0.04.
`c1ccc(-c2ncn(C3CCNCC3)c2-c2ccccc2Cn2cccn2)cc1` was tested, and the “% Inhibition” value was 3% and the Z score was -0.47.
With `CCOc1ccc(Nc2nc3ccccc3nc2Nc2cc(C)nn2-c2nc3ccccc3n2C)cc1` the “% Inhibition” value was -6% and the Z score was 0.99.
With `O=C(Cc1coc2cc(F)ccc12)N1CCO[C@@]2(CCCOC2)C1` the “% Inhibition” value was 4% and the Z score was -0.65.
With `CN1C(=O)C[C@@H](CNc2ncnc3[nH]ccc23)[C@@H]1c1nccn1C` the “% Inhibition” value was -3% and the Z score was 0.52.
With `CCc1nccn1CCCNc1nccc(N2CC[C@H](O)C2)n1` the “% Inhibition” value was 15% and the Z score was -2.67.
For `CNC(=O)c1ccc(OC)c(-c2cccc(C(=O)N3CCCC[C@@H]3CN)c2)c1`, the “% Inhibition” value was 2% and the Z score was -0.28.
In the case of `c1ccc([C@H]2CCCN(CCNCc3cnc(-c4cccs4)nc3)C2)cc1`, the “% Inhibition” value is reported as -5% and the Z score is reported as 0.92.
`COCCN1CCC[C@H](CNc2nc(N)c3cnn(C)c3n2)C1` was tested, and the “% Inhibition” value was -4% and the Z score was 0.72.
In the case of `CN1CCN(CC2CN(Cc3cccc(N4CCOCC4)c3)CC2CO)CC1` (stereo not drawn), the “% Inhibition” value is reported as -13% and the Z score is reported as 2.85.
In the case of `COc1ccc(-c2ccccc2)cc1N1C(=O)C2CC1CN2c1ccnc(N)n1` (stereo not drawn), the “% Inhibition” value is reported as -4% and the Z score is reported as 0.84.
For `CC1CC1CC(=O)N1CC(O)(C(F)F)C1` (stereo not drawn), the “% Inhibition” value was -7% and the Z score was 1.24.
`CCN(CC)Cc1cnc2c(C(=O)NC3CC(C)(C)NC(C)(C)C3)cnn2c1` was tested, and the “% Inhibition” value was -8% and the Z score was 1.41.
In the case of `CN1CCC[C@@H](CNc2nc3ccccc3n2C)[C@@H]1c1cncn1C`, the “% Inhibition” value is reported as 5% and the Z score is reported as -0.9.
In the case of `COCCN1CCC[C@H](CNCc2cnn(-c3ccc4ccccc4c3)c2)C1`, the “% Inhibition” value is reported as 40% and the Z score is reported as -8.61.
For `COC(=O)CCN(C(=O)CCN1C(=O)C2CCCCC2C1=O)C1CCOCC1` (stereo not drawn), the “% Inhibition” value was -5% and the Z score was 1.06.
In the case of `COc1nc(NCCN2CCC[C@H](C(N)=O)C2)ncc1F`, the “% Inhibition” value is reported as -1% and the Z score is reported as 0.28.
`C[C@H](O)c1ccc(CNc2ncccc2F)cc1` was tested, and the “% Inhibition” value was 1% and the Z score was -0.21.
`CC(C)(C)c1nc(C(=O)N2CCn3c(Cl)cnc3C2)cs1` was tested, and the “% Inhibition” value was -7% and the Z score was 1.29.
`CN1CCN(Cc2cc(-c3ccc(F)cc3)ccc2OCC(=O)N2CC=C(c3ccccc3)CC2)CC1` was tested, and the “% Inhibition” value was -4% and the Z score was 0.74.
`CN(C)C(=O)c1ccc(-c2ccc(-c3ccn[nH]3)cc2)nc1` was tested, and the “% Inhibition” value was -8% and the Z score was 1.4.
With `Cc1ccc(Nc2ccc(NCCNS(=O)(=O)c3ccccc3F)nn2)nc1` the “% Inhibition” value was 11% and the Z score was -1.96.
With `CC1(C)CCCN(c2ccnc(N[C@H]3CCCOCC3)n2)C1` the “% Inhibition” value was 9% and the Z score was -1.88.
With `O=C(O)c1cc(Nc2cc(-c3ccccc3)ncn2)ccc1O` the “% Inhibition” value was 2% and the Z score was -0.45.
For `N#CCN1CCCC1C1CCCCC1O` (stereo not drawn), the “% Inhibition” value was 3% and the Z score was -0.46.
For `Cc1ccc(CN2CCC(N3CCC(Oc4ccc(C(F)(F)F)cn4)CC3)CC2)s1`, the “% Inhibition” value was -2% and the Z score was 0.34.
In the case of `O=C(Nc1ccccc1-c1ccccc1)N1CCC(N2CCN(CCO)CC2)CC1`, the “% Inhibition” value is reported as 6% and the Z score is reported as -1.1.
With `CCc1nc2ccc(NC(=O)N3CCN(c4cc(C)nc(N)n4)CC3)cc2[nH]1` the “% Inhibition” value was -6% and the Z score was 0.99.
`Cc1cc2cccc(C(=O)NCC3CCN(c4ncnc5[nH]ccc45)CC3)c2o1` was tested, and the “% Inhibition” value was -4% and the Z score was 0.79.
In the case of `Cc1cc(Cl)cc2c1N(C(=O)c1cccc3nccn13)CCC2`, the “% Inhibition” value is reported as 2% and the Z score is reported as -0.49.
For `CC(C)(CN1CCCCCC1)NC(=O)c1cccc(-c2ccccc2O)c1`, the “% Inhibition” value was 1% and the Z score was -0.19.
For `O=C(Nc1cncnc1N1CCCC1)c1cc(F)cc2[nH]cnc12`, the “% Inhibition” value was 37% and the Z score was -7.43.
`C[C@@H]1CN(C(=O)c2cccc(-c3ccc4cc(O)ccc4c3)c2)[C@@H](C)CN1` was tested, and the “% Inhibition” value was -2% and the Z score was 0.39.
With `Cn1cc(-c2cncc(C(=O)NC3CCN(c4cccc(F)c4)CC3)c2)cn1` the “% Inhibition” value was 50% and the Z score was -10.8.
For `CN1CCN(CCCNC(=O)Nc2cccc(-c3ccn[nH]3)c2)CC1`, the “% Inhibition” value was -6% and the Z score was 1.13.
In the case of `Fc1ccc(NCc2ccc(OCC3CC3)cc2)nc1`, the “% Inhibition” value is reported as 1% and the Z score is reported as -0.11.
`Cc1cc(NCc2nnc3n2-c2ccccc2CC3)c2ccccc2n1` was tested, and the “% Inhibition” value was -16% and the Z score was 2.46.
In the case of `O=C(Cc1c[nH]c2ncccc12)Nc1ccc2c(c1)NC(=O)CC2`, the “% Inhibition” value is reported as -1% and the Z score is reported as 0.21.
`COC(=O)c1cc2n(n1)CCN(C(=O)[C@H](C)N1CCCC1=O)C2` was tested, and the “% Inhibition” value was -1% and the Z score was 0.24.
For `CN(C)Cc1ccc(N2CCN(C(=O)c3ccc(-c4ccccc4)[nH]3)CC2)nc1`, the “% Inhibition” value was 1% and the Z score was -0.19.
With `N#Cc1cnc(NC2COCC2N2CCCC2)nc1N` (stereo not drawn) the “% Inhibition” value was 3% and the Z score was -0.54.
For `CN1CCCN(CCNCC2CC3C=CC2C3)CC1` (stereo not drawn), the “% Inhibition” value was -7% and the Z score was 1.43.
For `Cc1ncc(S(C)(=O)=O)c(N2CC[C@@]3(CNC(=O)CO3)C2)n1`, the “% Inhibition” value was 4% and the Z score was -0.76.
With `O=C(CN1CC(O)C(Cc2ccnc3ccccc23)C1)N1CCNCC1` (stereo not drawn) the “% Inhibition” value was 2% and the Z score was -0.41.
For `Cc1nscc1C(=O)OCc1ccc2c(c1)COC2`, the “% Inhibition” value was -6% and the Z score was 0.98.
In the case of `c1cc2ccc(CN3CCCC4(CCNCC4)CC3)nc2[nH]1`, the “% Inhibition” value is reported as -15% and the Z score is reported as 2.25.
With `NC(=O)c1ccc(OCCCN2CCC(Nc3ncccn3)C(O)C2)cc1` (stereo not drawn) the “% Inhibition” value was 0% and the Z score was 0.03.
With `COc1nccnc1N1CCC(N2CCC[C@H](C(=O)N3CCOCC3)C2)CC1` the “% Inhibition” value was 5% and the Z score was -0.84.
For `O=C(Cc1ccccc1)Nc1cc(NCc2cccc3cc[nH]c23)ccc1F`, the “% Inhibition” value was 7% and the Z score was -1.27.
For `CS(=O)(=O)Cc1ccc(F)cc1CNc1nc2ccccc2[nH]1`, the “% Inhibition” value was -4% and the Z score was 0.64.
For `Cc1cc(CC2CN(C(=O)CCc3[nH]nc(C)c3C)CC2O)on1` (stereo not drawn), the “% Inhibition” value was 0% and the Z score was 0.01.
In the case of `COc1cccc(C(NCC(O)COc2cccc3[nH]ccc23)c2ccccn2)c1` (stereo not drawn), the “% Inhibition” value is reported as 6% and the Z score is reported as -1.2.
`O=S1(=O)CCC(O)(CNC2CC(c3ccccc3)C2)CC1` (stereo not drawn) was tested, and the “% Inhibition” value was -1% and the Z score was 0.26.
With `CC(C)N1CCC(N(CCNS(=O)(=O)c2cc(F)cc(F)c2)C2CCOCC2)CC1` the “% Inhibition” value was -6% and the Z score was 1.13.
With `Cc1nc(-c2nnc[nH]2)sc1C(=O)N1CCC12COC2` the “% Inhibition” value was 3% and the Z score was -0.51.
